Measurements published in a collection of fitness landscapes (doi:10.1016/j.celrep.2020.107928).
In all, about 81,000 sequences were measured (“one-hybrid fitness for binding NBS DNA”: median about -0.1, highest 2% from about 0.36 on). The list shows a part of the results.

B1: Caulobacter ParB omega fusion; a variant is named by its letters at X, in order, B8GW30 (parent)
chain: MESVVVGEPGMSEGRRGLGRGLSALLGEVDAAPAQAPGEQLGGSREAPIEILQRNPDQPRRTFREEDLEDLSNSIREKGVLQPILVRPSPDTAGEYQIVAGERAWRAAQRAGLKTVPIMVRELDDLAVLEIGIIENVQRADLNVLEEALSYKVLMEKFERTQENIAQTIGKSXSHVANXMRLLXLPDEVQSYLVSGELTAXHARAIAAAADPVALAKQIIEGGLSVRETEALARKAPNLSAGKSKGGRPPRVKDTDTQALESDLSSVLGLDVSIDHRGSTGTLTITYATLEQLDDLCNRLTRGI

Variants of: B1
Assay: one-hybrid fitness for binding NBS DNA (the Noc-binding site; scaled: cognate 1, non-cognate 0); higher = stronger binding
Settings: with NBS DNA site
How it was run: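 Fitness here means the log change in variant-to-wild-type read ratio between plasmids sequenced before and after selection. That scale was set so cognate equals 1 and non-cognate equals 0. The selection was a bacterial one-hybrid screen of Caulobacter ParB libraries, four specificity codons randomised, in E. coli USO carrying a HIS3 reporter with the site 19 bp from the promoter, grown 48 hours at 37°C on M9-minus-histidine with 0.1 mM IPTG and 5 mM 3-AT.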

Variant	one-hybrid fitness for binding NBS DNA
LKGE	≤ 0.2
DNLC	≤ 0.2
SGGC	≤ 0.2
VDGI	≤ 0.2
NRIM	≤ 0.2
TMKV	≤ 0.2
NLTR	≤ 0.2
TFES	≤ 0.2
AIAM	≤ 0.2
PWLV	≤ 0.2
ESEF	≤ 0.2
DTED	≤ 0.2
ITFF	≤ 0.2
REAP	≤ 0.2
RFIH	≤ 0.2
MIVC	≤ 0.2
HGQR	≤ 0.2
QSGH	≤ 0.2
YVYR	≤ 0.2
GDKY	≤ 0.2
RCYI	≤ 0.2
DNML	≤ 0.2
VHNT	≤ 0.2
YEVI	≤ 0.2

Variant	one-hybrid fitness for binding NBS DNA
AWAS	≤ 0.2
SGGE	≤ 0.2
NTCT	≤ 0.2
PAYE	≤ 0.2
QCGG	≤ 0.2
EAST	≤ 0.2
YMNR	≤ 0.2
NEIW	≤ 0.2
STYV	≤ 0.2
QMDL	≤ 0.2
QEPR	0.302
QDES	≤ 0.2
MFNT	≤ 0.2
GVTW	≤ 0.2
AEMV	≤ 0.2
STGG	≤ 0.2
YLAA	≤ 0.2
YWLL	≤ 0.2
RCHA	0.307
YFLC	≤ 0.2
HRAS	≤ 0.2
KGSF	≤ 0.2
DKSV	≤ 0.2
FFNR	≤ 0.2

Variant	one-hybrid fitness for binding NBS DNA
STAV	≤ 0.2
DTHM	≤ 0.2
DTVG	≤ 0.2
PQLT	≤ 0.2
RLGV	≤ 0.2
KIGE	≤ 0.2
TANM	≤ 0.2
VTTP	≤ 0.2
YTTV	≤ 0.2
VKYR	≤ 0.2
CHLR	≤ 0.2
TTIH	≤ 0.2
WCIT	≤ 0.2
DMCC	≤ 0.2
LRGD	≤ 0.2
ETML	≤ 0.2
ASGR	≤ 0.2
NYEM	≤ 0.2
RCVD	≤ 0.2
EATV	≤ 0.2
NLSG	≤ 0.2
MHEV	≤ 0.2
AWES	≤ 0.2
GYST	≤ 0.2

Variant	one-hybrid fitness for binding NBS DNA
EPRR	≤ 0.2
PSYN	≤ 0.2
YIAQ	≤ 0.2
RTLS	0.381
QKPV	≤ 0.2
PNQI	≤ 0.2
WVPC	≤ 0.2
AWAR	≤ 0.2
CRQC	≤ 0.2
KDML	≤ 0.2
RCHL	≤ 0.2
ASIR	≤ 0.2
PCDA	≤ 0.2
SHNS	≤ 0.2
QINH	≤ 0.2
FHQR	≤ 0.2
PPSV	≤ 0.2
AIHT	≤ 0.2
EAHM	≤ 0.2
RWDV	≤ 0.2
LYNT	≤ 0.2
SCVS	≤ 0.2
IDMR	≤ 0.2
KKTQ	≤ 0.2

Variant	one-hybrid fitness for binding NBS DNA
GSRT	≤ 0.2
SRYY	≤ 0.2
HTMW	≤ 0.2
DHNT	≤ 0.2
QIFI	≤ 0.2
SLTC	≤ 0.2
RTSQ	≤ 0.2
VKKY	≤ 0.2
HNKA	≤ 0.2
LLHT	≤ 0.2
RRET	0.698
AQRM	≤ 0.2
THPF	≤ 0.2
APEV	≤ 0.2
WTSY	≤ 0.2
FMNL	≤ 0.2
DQSK	≤ 0.2
GKWN	≤ 0.2
HVYY	≤ 0.2
DQKI	≤ 0.2
IRAG	≤ 0.2
SRRA	≤ 0.2
NQHT	≤ 0.2
IGLE	≤ 0.2

Variant	one-hybrid fitness for binding NBS DNA
RIWP	≤ 0.2
LWRD	≤ 0.2
HCWC	≤ 0.2
SQLE	≤ 0.2
GNAV	≤ 0.2
FKRV	≤ 0.2
KMKG	≤ 0.2
ARSH	≤ 0.2
QRVS	0.561
RRDW	≤ 0.2
SPHV	≤ 0.2
GLSG	≤ 0.2
TESC	≤ 0.2
NKYS	≤ 0.2
DGLT	≤ 0.2
CACV	≤ 0.2
PMEA	≤ 0.2
QKVS	0.32
GARS	≤ 0.2
WALY	≤ 0.2
RYVT	0.229
RCKC	0.37
MMAD	≤ 0.2
VLNN	≤ 0.2

Variant	one-hybrid fitness for binding NBS DNA
RERF	≤ 0.2
MVTK	≤ 0.2
PCPH	≤ 0.2
PSPQ	≤ 0.2
KETW	≤ 0.2
VDVP	≤ 0.2
LEIW	≤ 0.2
GLPT	≤ 0.2
PRKE	≤ 0.2
RGAV	≤ 0.2
AIRA	≤ 0.2
MCLR	≤ 0.2
RRKS	0.68
NTLT	≤ 0.2
CKKF	≤ 0.2
GYTG	≤ 0.2
RHHL	≤ 0.2
HTVT	≤ 0.2
CCWG	≤ 0.2
AYMW	≤ 0.2
NDPC	≤ 0.2
TRFC	≤ 0.2
LGDY	≤ 0.2
TRIM	≤ 0.2

Variant	one-hybrid fitness for binding NBS DNA
WNTI	≤ 0.2
KHPF	≤ 0.2
KQPG	≤ 0.2
QQYE	≤ 0.2
QCKN	0.445
DMYR	≤ 0.2
QTPQ	≤ 0.2
AYPV	≤ 0.2
MPPC	≤ 0.2
LNAD	≤ 0.2
YFSE	≤ 0.2
LAPV	≤ 0.2
LKDS	≤ 0.2
VWIR	≤ 0.2
PIYF	≤ 0.2
ACGS	≤ 0.2
YRKL	≤ 0.2
QRVN	0.259
VPVY	≤ 0.2
FSTT	≤ 0.2
PYHL	≤ 0.2
RIAH	≤ 0.2
CCQG	≤ 0.2
GPAC	≤ 0.2

Variant	one-hybrid fitness for binding NBS DNA
MTKN	≤ 0.2
VNPC	≤ 0.2
PTCQ	≤ 0.2
LAFI	≤ 0.2
KMNQ	≤ 0.2
SPDD	≤ 0.2
GVDS	≤ 0.2
NDVR	≤ 0.2
PWPW	≤ 0.2
ATGS	≤ 0.2
WDSN	≤ 0.2
QPFV	≤ 0.2
QGMY	≤ 0.2
QVIR	0.242
IMNS	≤ 0.2
VRFR	≤ 0.2
SAHC	≤ 0.2
VTSD	≤ 0.2
HVVG	≤ 0.2
PLFV	≤ 0.2
LRHT	≤ 0.2
TPEW	≤ 0.2
GGSN	≤ 0.2
AREG	≤ 0.2

Variant	one-hybrid fitness for binding NBS DNA
SFPE	≤ 0.2
TAMD	≤ 0.2
QHIV	≤ 0.2
TDGL	≤ 0.2
AGLI	≤ 0.2
WRGT	≤ 0.2
PVTW	≤ 0.2
RPQG	≤ 0.2
GLCC	≤ 0.2
RHAQ	≤ 0.2
IRRK	≤ 0.2
WMTR	≤ 0.2
WVHI	≤ 0.2
CAST	≤ 0.2
VGQW	≤ 0.2
ELNG	≤ 0.2
KKYS	≤ 0.2
HEHA	≤ 0.2
QKRY	0.518
EHWR	≤ 0.2
GYNG	≤ 0.2
SPVS	≤ 0.2
KPQW	≤ 0.2
LVHH	≤ 0.2

Variant	one-hybrid fitness for binding NBS DNA
ASKN	≤ 0.2
LLIF	≤ 0.2
GGFS	≤ 0.2
TADP	≤ 0.2
LGTM	≤ 0.2
TWSC	≤ 0.2
CYYA	≤ 0.2
NPSL	≤ 0.2
EARD	≤ 0.2
SECR	≤ 0.2
FFRR	≤ 0.2
DFTE	≤ 0.2
RKNL	≤ 0.2
YKVT	≤ 0.2
QWVV	≤ 0.2
HKTC	≤ 0.2
LRKM	≤ 0.2
RDTW	≤ 0.2
VFTL	≤ 0.2
WVQS	≤ 0.2
FKIG	≤ 0.2
PALF	≤ 0.2
MKTT	≤ 0.2
PQEM	≤ 0.2

Variant	one-hybrid fitness for binding NBS DNA
RNPL	≤ 0.2
RMQS	0.409
RWRC	≤ 0.2
VAYE	≤ 0.2
TPHA	≤ 0.2
QSWP	≤ 0.2
DFKL	≤ 0.2
APAE	≤ 0.2
SEQT	≤ 0.2
VLKV	≤ 0.2
QLLN	≤ 0.2
EYVR	≤ 0.2
MEYR	≤ 0.2
YKQS	≤ 0.2
TLDS	≤ 0.2
WTRH	≤ 0.2
TRLE	≤ 0.2
QCMR	0.589
VLNG	≤ 0.2
IAMP	≤ 0.2
KHPK	≤ 0.2
RCNT	0.589
AKKM	≤ 0.2
QGIS	≤ 0.2

Variant	one-hybrid fitness for binding NBS DNA
YYHG	≤ 0.2
RFNV	≤ 0.2
TGHC	≤ 0.2
RHVP	≤ 0.2
RPTS	≤ 0.2
QTVV	≤ 0.2
QCME	≤ 0.2
IYYR	≤ 0.2
PPIW	≤ 0.2
ALQF	≤ 0.2
KMSG	≤ 0.2
AMGG	≤ 0.2
SDAV	≤ 0.2
FPTV	≤ 0.2
YIQL	≤ 0.2
SLSP	≤ 0.2
CIAS	≤ 0.2
GLAN	≤ 0.2
